The structures appear in SMILES notation. In all, about 110,000 compounds were measured (“z-score”: median about -0.1, highest 2% from about 2 on). The list shows a part of the results. The source made the active and inactive calls.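 The calls were made as follows: active = z-score in the third read window above 3 or below -3; inactive = the rest.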

The record followed here is PubChem BioAssay AID488969 (Vanderbilt High Throughput Screening Facility, 2010).

In this experiment the target is Metabotropic glutamate receptor 8 (Rattus norvegicus) (UniProt P70579). Put plainly: mGluR8 Gi/Go-coupled signaling modulation – cell-based, rat, thallium flux, HTS, primary screen (AID 488969). The conditions noted are these: HEK293 rat mGluR8, GIRK (G protein-gated inwardly rectifying potassium channel) thallium flux, FluoZin2; at 10 µM; stronger effect = higher value; submaximal glutamate (EC20) added with thallium.
Sequence of UniProt P70579 (P70579 whole entry, looked up): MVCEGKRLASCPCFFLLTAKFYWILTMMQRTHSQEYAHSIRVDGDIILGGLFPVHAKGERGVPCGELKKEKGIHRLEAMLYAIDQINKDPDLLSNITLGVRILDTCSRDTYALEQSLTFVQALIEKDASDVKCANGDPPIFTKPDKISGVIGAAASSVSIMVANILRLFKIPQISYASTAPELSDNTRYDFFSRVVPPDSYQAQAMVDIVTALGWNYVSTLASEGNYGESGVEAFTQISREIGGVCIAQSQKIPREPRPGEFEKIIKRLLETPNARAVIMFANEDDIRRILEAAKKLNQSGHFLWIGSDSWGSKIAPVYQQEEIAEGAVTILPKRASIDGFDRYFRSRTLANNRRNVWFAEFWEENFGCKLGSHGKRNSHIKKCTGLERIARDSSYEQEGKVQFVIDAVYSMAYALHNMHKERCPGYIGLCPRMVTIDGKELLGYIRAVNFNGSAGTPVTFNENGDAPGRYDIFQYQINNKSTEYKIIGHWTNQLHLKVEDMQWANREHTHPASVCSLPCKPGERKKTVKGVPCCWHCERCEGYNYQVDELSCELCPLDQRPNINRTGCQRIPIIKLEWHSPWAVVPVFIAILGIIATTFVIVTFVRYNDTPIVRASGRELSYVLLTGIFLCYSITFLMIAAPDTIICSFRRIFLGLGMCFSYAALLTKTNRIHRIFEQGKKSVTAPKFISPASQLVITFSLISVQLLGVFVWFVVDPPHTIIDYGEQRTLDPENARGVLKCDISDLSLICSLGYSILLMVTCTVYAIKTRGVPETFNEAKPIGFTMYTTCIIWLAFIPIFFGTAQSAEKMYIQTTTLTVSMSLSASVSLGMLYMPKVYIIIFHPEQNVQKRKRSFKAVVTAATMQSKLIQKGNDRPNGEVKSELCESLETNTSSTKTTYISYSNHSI
Regarding `COc1nc(-c2ccc(Cl)cc2)ccc1-c1noc(-c2cccs2)n1`, the z-score was -0.0452.
With `COc1cccc(NC2=NC3(CCCCC3)N=C(N)N2)c1`, the z-score was -0.198.
Regarding `COC(=O)c1cc(NS(=O)(=O)c2ccc(NCc3cccnc3)c([N+](=O)[O-])c2)cc(C(=O)OC)c1`, the z-score is -0.148.
Next, `Cc1csc(NC(=O)C2CCN(S(=O)(=O)c3ccc4c(c3)oc(=O)n4C)CC2)n1`: -0.126; `Cc1c(CC(=O)O)c(=O)oc2cc(OCc3nn[nH]n3)ccc12`: -0.0529.
Molecule `O=C(C1c2ccccc2C(=O)N2CCc3ccccc3C12)N1CCN(Cc2ccccc2)CC1` (configuration not stated) came in with a z-score of -0.168.
Under `O=C(N/N=C/C=C/c1ccccc1)c1cc2c(ccc3ccccc32)o1` stands -0.171; under `CN(/N=C/c1cccs1)c1cc(=O)n(C)c(=O)[nH]1`, -0.167; under `CC1(C)Cc2c(c(N3CCCC3)[nH]c(=S)c2C#N)CO1`, -0.368.
Under `CCN(CC)S(=O)(=O)c1ccc(/C=C/C(=O)Nc2cccc(F)c2)cc1` stands -0.186.
Under `CCOC(=O)c1c(C)c(-c2ccccc2)n(CC(=O)NCCC(C)C)c1C` stands -0.264.
`O=C(NC1CCCCC1)N(Cc1ccc(F)cc1)Cc1nc2ccccc2c(=O)[nH]1` came in with a z-score of -0.385.
Under `CC1CCCC(NC(=O)CSc2ncccc2C(=O)O)C1C` (configuration not stated) stands 0.422; under `Cc1nn(Cc2ccc(Cl)cc2Cl)c(C)c1NC(=O)c1sc2ccccc2c1Cl`, 0.1.
With `Nc1ccccc1N1CCN(C(=O)c2ccccc2)CC1`, the z-score turned out to be 1.12.
Regarding `Cc1ccc(O)c(-c2cc(C(=O)NCc3ccncc3)[nH]n2)c1`, the z-score was -1.24.
Next, `Cc1ccc(C)c(NC(=O)c2ccc[n+](Cc3ccc([N+](=O)[O-])cc3)c2)c1`: 0.037.
For the molecule `COc1ccccc1NS(=O)(=O)c1cccc(NC(=O)Cc2cccs2)c1`, the z-score is 1.
Under `C=CCN(N=Nc1cccc([N+](=O)[O-])c1)c1cccc([N+](=O)[O-])c1` stands -0.186.
The molecule `Cc1ccc(C)c(CSc2nnc([C@@H](N)C(C)C)o2)c1` returned a z-score of 0.564.
Under `CCOc1ccc(CCNC(=O)CSc2nn(-c3ccc(C)c(Cl)c3)c(=S)s2)cc1OCC` stands -2.23.
Next, `O=C(Nc1ccccc1)c1cccc(N2C(=O)CCC2=O)c1`: -0.0312.
Next, `COc1cccc(CNc2ccc(S(=O)(=O)Nc3nccs3)cc2)c1O`: 0.255; `Cc1cc(NC(=O)CSc2nccn2-c2ccc(F)cc2)no1`: -0.0255; `CCCCCOC(=O)C1=C(C)Nc2nnnn2C1c1ccc(OC)c(OC)c1OC` (configuration not stated): -0.249.
In turn, `O=C(NC1CC2CCC1C2)C1COc2ccccc2O1` (configuration not stated) yielded a z-score of -0.23.
Under `CCCc1cc(NCC2CCCO2)n2c(nc3ccccc32)c1C#N` (configuration not stated) stands -1.08; under `Cc1cc(OC(C)C)nc(NCc2ccccc2)n1`, 0.122.
In turn, `O=C(c1ccco1)N1CCN(Cc2ccccc2C(F)(F)F)CC1` displayed a z-score of 0.0757.
Under `COc1ccc(OCCCC(=O)Nc2nncs2)cc1` stands 0.126.
Under `CCCC/C(C)=N/NC(=O)c1cn(-c2ccccc2)nc1-c1ccccc1` stands 0.374; under `O=C(Nc1cccc2ncccc12)c1ccc(-c2ccc(Br)cc2)o1`, -0.163; under `Cc1cc(C)c(C)c(OCC(=O)N2CCCCCC2)c1`, -0.279.
Under `CCN(CC)C(=O)C1CCC(C)(C(=O)O)C1(C)C` (configuration not stated) stands -0.15.
The molecule `O=C(Cc1cn2ccsc2n1)Nc1nc2c(s1)CCCC2` gave a z-score of 0.758.
Next, `COc1ccc(S(=O)(=O)N2CCOCC2)cc1N=Nc1sc(N)nc1-c1ccccc1`: -0.00831; `O=S(=O)(c1ccc(Cl)cc1)N1CCC(n2cnc3cc(C(F)(F)F)ccc32)CC1`: -0.234.
Take `O=S(=O)(NC1CCCC1)c1ccc(Br)s1`: the z-score is -0.0206.
For `N#CCCn1c(SCC(=O)NCc2ccco2)nc2ccccc21`, the z-score came out at 0.191.
With `CCCn1c(CCc2ccccc2)nnc1SCC(=O)N1CCCC1`, the z-score turned out to be 0.269.
Next, `O=C(Nc1ccc([N+](=O)[O-])cc1Br)c1cccnc1`: 0.0191.
For `O=[N+]([O-])c1cn(Cc2ccccc2)cn1`, the z-score was -0.255.
Under `CCOc1ccc(-c2nn[nH]n2)cc1` stands -0.269.
Next, `CCN(CC)C(=O)c1ccc(S(=O)(=O)NCc2cccnc2)cc1`: -0.362.
`O=C(Nc1cccc(C(=O)N2CCCC2)c1)c1ccccc1Cl` yielded a z-score of -0.0275.
For `S=C(NCc1ccccc1)NCc1ccc2c(c1)OCO2`, the z-score was determined as 1.86.
As for `Cc1ccccc1N1CCN(C(=S)c2ccccc2)CC1`, the z-score is -0.0651.
Next, `CCN(C(=O)c1cc2ccccc2oc1=O)c1cccc(C)c1`: 0.00276.
For the molecule `CC(C)(C)C(=O)Nc1nnc(SCC(=O)Nc2ccc3c(c2)OCO3)s1`, the z-score was -0.149.
Turning to `Cc1ccccc1[C@@H]1C(C#N)=C(N)S[C@H]1C(=O)c1ccccc1`, the z-score is -0.0123.
As to `FC(F)C(F)(F)C1=CC(c2cccs2)=NCCN1`, the z-score worked out at 0.987.
For the molecule `CC1CCC(Nc2nnnn2-c2ccccc2)CC1` (configuration not stated), the z-score was -0.066.
Under `COc1cc(CCC(=O)Nc2cc(Cl)ccc2N2CCN(C)CC2)cc(OC)c1OC` stands -0.754.
Next, `Cc1ccc(NC(=S)NCC(C)C)cc1`: -0.269; `Cc1c(C(=O)N2CCCC2)sc(NC(=O)c2cccs2)c1C#N`: -0.577.
Under `Clc1ccc(CSc2cc3c(nn2)-c2ccccc2CC3)cc1` stands -0.16.
Molecule `CCC(C)NC(=O)c1ccc(CS(=O)(=O)Cc2ccc(Cl)cc2)o1` (configuration not stated) came in with a z-score of 0.00651.
In turn, `O=C(Cn1cnc2c(cnn2-c2ccc(F)cc2)c1=O)N1CCN(c2ccccc2F)CC1` returned a z-score of -0.0382.
In turn, `CCCCN1C=C(C(=O)OC)C(c2ccccc2C(F)(F)F)C(C(=O)OC)=C1` displayed a z-score of -0.0636.
Under `C=CCN=c1scc(-c2ccccc2)n1/N=C/c1ccccn1` stands -1.65.
Next, `CCCCNC(=O)/C(C#N)=C/c1ccc(-c2ccc(S(=O)(=O)N3CCOCC3)cc2)o1`: 0.164; `O=C1NC(c2cn(-c3ccccc3)nc2-c2cccs2)C(C(=O)c2cccnc2)C(O)(C(F)(F)F)N1` (configuration not stated): -0.106; `Cn1c(CN2CCOCC2)nnc1SCC(N)=O`: 0.0469.
With `CCN(CCCNC(=O)Cn1ncc2c(=O)oc3ccccc3c21)c1cccc(C)c1`, the z-score is -0.306.
`O=C1CN(c2ccccc2F)C(=O)CN1c1ccccc1F` showed a z-score of -0.0359.
On to `Cc1ccc(OCC(=O)N/N=C\c2ccc(-c3cccc(C(=O)O)c3)o2)c(C)c1`, for which the z-score was active: 3.24.
Under `COc1ccc(C(=O)CN(Cc2ccccc2)C2=NCCS2)cc1` stands 0.156; under `CCCN1C(=O)/C(=C/c2ccc(C)o2)SC1=Nc1ccc(OCC)cc1`, -0.0168.
The molecule `O=c1c(-c2ccc3c(c2)OCCO3)c(C(F)(F)F)oc2cc(O)cc(O)c12` gave a z-score of -0.788.
Regarding `O=C(CCS(=O)(=O)c1ccc(Cl)cc1)N1CCN(c2ccccc2F)CC1`, the z-score stood at 0.26.
In turn, `COc1ccc(NC(=O)c2cccnc2Cl)c(S(=O)(=O)N2CCOCC2)c1` registered a z-score of 0.247.
Next, `Cc1cc(C)n(CCC(=O)N/N=C/c2ccccc2O)n1`: 0.119; `Oc1c(Br)cc(C2N=C(c3ccccc3Cl)NO2)cc1Br` (configuration not stated): -0.268; `CCN(CC)C(=O)CSc1nnc(-c2ccccc2)c(-c2ccccc2)n1`: -0.489.
In the case of `CCN1CCc2nc(NC(=O)Cc3ccc4c(c3)OCCO4)sc2C1`, the z-score stood at 0.109.
Next, `CC(=O)NC(c1ccccc1)c1nc2ccccc2[nH]1` (configuration not stated): 0.479.
For the molecule `CCCC(C)C(=O)N(Cc1ccccc1)c1ccccn1` (configuration not stated), the z-score was found to be 0.0978.
Next, `CCCCC(O)(CCCC)C(=O)NN(C(=O)CCl)c1ccccc1`: -0.259; `CC(C)(C)c1ccc(OC(=O)CN2C(=O)C3C4CCC(C4)C3C2=O)cc1` (configuration not stated): -0.113; `CC(C)C(NC(=O)c1ccc2c(c1)OCO2)C(=O)N/N=C\c1ccco1` (configuration not stated): -0.000464.
`NC(=O)CSc1nc2scc(-c3ccc(Cl)cc3)c2c(=O)n1Cc1ccccc1` returned a z-score of -0.0513.
As to `CCCCn1ccnc1C(=O)c1ccc(S(=O)(=O)N(CCOC)CCOC)cc1`, the z-score came to 1.36.
Under `CCn1c(CCNC(=O)c2ccc(Cl)c(Cl)c2)nnc1SCCOc1ccc(OC)cc1` stands -0.213; under `Cc1cc(O)c(-c2cc(C(=O)Nc3ccc(S(=O)(=O)N4CCOCC4)cc3)[nH]n2)cc1C`, -0.196; under `CCN(CC)S(=O)(=O)c1ccc(NC(=S)NC(=O)CC(C)C)cc1`, -0.282.
Next, `CCCCSc1nc(SCC(=O)NCc2ccco2)c2c3c(sc2n1)COC(C)(CC)C3` (configuration not stated): -0.0456; `Cc1cc2cc(CCNC(=O)c3ccc(S(=O)(=O)N4CCOCC4)cc3)c(=O)[nH]c2cc1C`: -0.854; `O=C1C=C(NCc2ccco2)CCC1`: 2.
Regarding `CC(C)C(=O)NC(NCC1CCCO1)C(Cl)(Cl)Cl` (configuration not stated), the z-score was -0.0356.
Under `CC1=NC(=O)C(N=Nc2cccc(O)c2)N1c1ccccc1` (configuration not stated) stands -0.139.
Take `Cc1ccc(Cn2nc(-c3ccccc3)nc2-c2ccccc2)cc1`: the z-score was 0.0387.
Regarding `CN(CC(=O)Nc1ccccc1Cl)C(=O)CSc1ncc(C(F)(F)F)cc1Cl`, the z-score is -0.0158.
Next, `CC(C)NC(=O)c1cc2cc([N+](=O)[O-])ccc2s1`: -0.0773; `COC(=O)Cn1c(=O)c2c(nc(Br)n2Cc2ccccc2Cl)n(C)c1=O`: -0.417; `COc1ccc(OCc2nc3c4c(ncn3n2)-c2ccccc2CC42CCCC2)cc1`: -0.0939.
In the case of `CC(C)N(CCNS(=O)(=O)c1ccc(Cl)cc1)C(C)C`, the z-score is -0.192.
Next, `Clc1ccc(/C=N/Nc2nn[nH]n2)cc1`: -1.27; `CCCCn1c(O)c(N=Nc2ccccn2)c2ccccc21`: 2.97; `Cc1cc2c(c(N3CCOCC3)n1)C(=O)OC2`: -0.0495.
Take `CC(C)(O)c1cn(-c2nonc2N)nn1`: the z-score worked out at 0.304.
`CCCCn1nnc(NC(=O)COc2ccc(Cl)c(C)c2)n1`: the z-score was 0.0561.
Under `COc1ccc(C(=O)NC(=S)Nc2ccccc2N2CCN(S(C)(=O)=O)CC2)cc1OC` stands 0.464.
Next, `Cc1cc(C)nc(N2CCC(C(=O)Nc3ccc4c(c3)CCC4)CC2)n1`: -0.308.
`COc1cccc(CN2C(=O)CCC2(C)C(=O)NC2CCCC2)c1` (configuration not stated): the z-score was -0.0357.
Molecule `O=C(COc1ccccc1)NCC1CCCO1` (configuration not stated) returned a z-score of 0.0828.
Under `C=CCNC(=O)/C(C#N)=C/c1c(N(Cc2ccccc2)Cc2ccccc2)nc2ccccn2c1=O` stands -0.014.
Molecule `C=CCn1c(Sc2nncn2C)nc2c1c(=O)[nH]c(=O)n2C` gave a z-score of 0.436.
The molecule `O=C(COC(=O)c1ccccc1NS(=O)(=O)c1cccs1)NCC12CC3CC(CC(C3)C1)C2` had a z-score of -0.35.
In turn, `O=C(O)CSc1nnnn1-c1ccccc1` yielded a z-score of -0.0304.
With `CCOC(=O)N/N=C(C)/C=C/c1ccco1`, the z-score was determined as 0.31.
`CCNc1cc(Cl)nc(SC)n1` yielded a z-score of -0.339.
Next, `O=C(Nc1ccccc1N1CCCC1)c1cccnc1Cl`: 0.34.
